Source: PMC4336329 (PLoS ONE, 2015)
Hit rate of the full screen: of about 310,000 compounds, about 2,200 (0.71%) showed an effect of 50% or more. The effect is printed as a negative number. This is one part of the list.

Target: human ether-à-go-go-related gene (hERG) potassium channel (human, UniProt Q12809)
Assay: primary screen, population patch clamp on CHO cells stably expressing hERG

Sequence of human ether-à-go-go-related gene (hERG) potassium channel (Q12809 whole entry, looked up): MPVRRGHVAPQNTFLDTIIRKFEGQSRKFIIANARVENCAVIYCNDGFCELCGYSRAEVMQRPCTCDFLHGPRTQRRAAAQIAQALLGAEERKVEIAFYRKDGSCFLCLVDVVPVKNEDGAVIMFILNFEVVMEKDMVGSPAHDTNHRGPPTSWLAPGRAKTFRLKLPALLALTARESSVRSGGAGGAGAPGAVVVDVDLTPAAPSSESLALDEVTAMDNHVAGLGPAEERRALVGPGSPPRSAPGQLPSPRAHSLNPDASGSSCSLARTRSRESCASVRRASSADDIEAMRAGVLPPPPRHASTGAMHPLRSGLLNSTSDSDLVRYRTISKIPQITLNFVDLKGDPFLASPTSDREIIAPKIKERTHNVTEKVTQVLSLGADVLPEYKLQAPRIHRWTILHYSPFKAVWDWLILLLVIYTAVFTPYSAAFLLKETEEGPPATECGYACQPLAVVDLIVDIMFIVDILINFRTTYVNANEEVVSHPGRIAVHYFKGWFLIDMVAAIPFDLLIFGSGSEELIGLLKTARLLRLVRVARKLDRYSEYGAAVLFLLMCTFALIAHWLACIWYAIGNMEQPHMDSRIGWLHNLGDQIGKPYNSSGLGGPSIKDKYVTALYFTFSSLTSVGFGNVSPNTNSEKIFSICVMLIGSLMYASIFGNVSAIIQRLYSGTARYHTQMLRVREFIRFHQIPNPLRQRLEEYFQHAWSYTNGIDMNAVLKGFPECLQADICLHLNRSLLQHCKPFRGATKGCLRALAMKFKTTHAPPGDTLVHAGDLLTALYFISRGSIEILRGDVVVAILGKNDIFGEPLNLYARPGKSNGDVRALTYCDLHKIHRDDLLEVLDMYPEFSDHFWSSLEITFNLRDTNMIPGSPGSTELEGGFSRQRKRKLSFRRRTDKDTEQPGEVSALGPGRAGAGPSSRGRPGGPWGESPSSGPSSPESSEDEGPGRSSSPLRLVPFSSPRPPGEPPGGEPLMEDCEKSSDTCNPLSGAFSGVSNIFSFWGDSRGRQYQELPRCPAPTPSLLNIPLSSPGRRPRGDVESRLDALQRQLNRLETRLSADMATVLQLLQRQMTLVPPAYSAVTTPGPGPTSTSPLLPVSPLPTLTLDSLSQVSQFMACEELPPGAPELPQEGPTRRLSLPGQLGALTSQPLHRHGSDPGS

SMILES | hERG current change (%, negative = inhibition) at 1uM
COc1ccccc1NC(=O)c1cc(S(=O)(=O)NC2CCCC2)ccc1F | 10.2%
CC(=O)C1CCCN(C(=O)c2ccc3oc(CCc4ccccc4)nc3c2)C1 (stereo not shown) | 1.24%
O=C(/C=C/c1cc([N+](=O)[O-])ccc1OC(F)F)Nc1cccc(OC(F)F)c1 | 12.2%
c1ccc(-n2nnnc2-c2cnc(-c3ccncc3)nc2-c2cccs2)cc1 | -7.85%
CCC(=O)Nc1cccc(NC(=S)NC(=O)c2cccs2)c1 | 7.78%
O=C(NCc1ccco1)C1CCN(c2ccc(S(=O)(=O)N3CCOCC3)cc2[N+](=O)[O-])CC1 | -51.5%
CC(C)(C)c1[nH]nc2c1C(c1ccco1)C(C#N)=C(N)O2 (stereo not shown) | 9.53%
CCCNC(=O)C1(S(=O)(=O)c2ccccc2)CC=CC1 | -14.6%
Cc1ccc(-c2nnc(Nc3ccc(CC(N)=O)cc3)c3ccccc23)cc1S(=O)(=O)NCC1CCCO1 (stereo not shown) | 12.4%
COc1ccc(F)cc1S(=O)(=O)Nc1cc2c3c(c1)CCC(=O)N3CCC2 | 11%
CCCCN(C(=O)NCCCCCCNC(=O)N(CCCC)C1CCS(=O)(=O)C1)C1CCS(=O)(=O)C1 (stereo not shown) | 10.4%
COc1ccc(NC(=O)CC2SC(=O)NC2=O)cc1 (stereo not shown) | 12.6%
Cc1ccc2c(c1)N(C(C)C(=O)NCc1cccs1)C(=O)CO2 (stereo not shown) | 12%
CC(C)(C)c1ccc(C(=O)N/C(=C\c2cccc([N+](=O)[O-])c2)C(=O)Nc2cccc(C(=O)O)c2)cc1 | 11.7%
Fc1ccccc1/C=N/Nc1nc(N2CCCCC2)nc(N2CCCCC2)n1 | 8.57%
COc1cccc(N(C(=O)CNC(=O)c2ccco2)C(C(=O)NC2CCCC2)c2cccnc2)c1 (stereo not shown) | -2.6%
O=S(=O)(NC1CCN(Cc2ccccc2)CC1)c1cccc2cccnc12 | -6.17%
CCc1nc(N)nc(N)c1-c1ccc(Cl)cc1 | -0.702%
COC(=O)CC1=C(C(=O)OC)C2(C(=O)Nc3c(C)cccc32)C(C#N)=C(N)O1 (stereo not shown) | 15.4%
CCCCNC(=O)Cn1cnc2c(cnn2-c2ccc(C)cc2)c1=O | 13.9%
COc1ccccc1/C=C(\NC(=O)c1ccc(OC)c(OC)c1)C(=O)Nc1cccc([N+](=O)[O-])c1 | 7.69%
Cc1cccnc1CC(C)NC(=O)c1cc(COc2cncc(Cl)c2)on1 (stereo not shown) | 14.7%

SMILES | hERG current change (%, negative = inhibition) at 1uM
O=C(Nc1cccc(NC(=O)c2cccs2)c1)c1ccc(Br)cc1 | 12.2%
Cc1ccc(NC(=O)CN2C(=O)COc3ccc(C)cc32)nc1 | 11.3%
CCCc1nc(SCC(=O)Nc2ccc(S(=O)(=O)N(C)C)cc2)c2ccccc2n1 | 5.62%
O=C(Nc1ccc(-c2nc3cc(Cl)ccc3o2)cc1)C1CCCO1 (stereo not shown) | 6.6%
CC(Nc1ccc2ccccc2c1)C(=O)N/N=C/c1ccncc1 (stereo not shown) | -12.4%
COc1cccc(NC(=O)CN(C)C(C)C(=O)Nc2ccc(S(=O)(=O)N3CCCC3)cc2)c1 (stereo not shown) | 8.31%
Cc1cccc2c(C(=O)O)cc(-c3cccnc3)nc12 | 18.7%
CC(CCCC(C)(C)O)NC(=O)c1ccc(OC2CCN(C(=O)C3CC3)CC2)cc1 (stereo not shown) | 9.14%
Cc1nc(N2CCN(Cc3ccccc3)CC2)nc2c1C(=O)CC(c1ccco1)C2 (stereo not shown) | -0.677%
O=[N+]([O-])c1cc([N+](=O)[O-])c2cccnc2c1Oc1ccccc1O | 10%
Cc1ccc(C(CC(=O)O)NC(=O)c2ccc(S(=O)(=O)N3CC(C)OC(C)C3)cc2)cc1 (stereo not shown) | 9.17%
COc1ccc2c(=O)c(C(=O)NCCc3ccc(OC)c(OC)c3)c[nH]c2c1 | 13.6%
O=C(NCCc1ccc(C(F)(F)F)cc1)C1CCC(=O)N(CCc2cccc(F)c2)C1 (stereo not shown) | -8.56%
O=C(COC(=O)c1cccnc1)Nc1ccccc1 | 9.77%
COC(=O)c1cnc(Oc2ccc(NC(=O)NC(=O)c3ccccc3Cl)cc2)cc1C(F)(F)F | 4.04%
CCOc1ccccc1N1CCN(C(=O)CNC(=O)c2ccccc2F)CC1 | -12.2%
O=C(Cn1c2ccccc2c(=O)c2ccccc21)N/N=C/c1cc([N+](=O)[O-])ccc1N1CCCCC1 | 4.22%
COc1cccc2cc(/C(C)=N/Nc3nc(-c4cc(C)ccc4C)cs3)c(=O)oc12 | 3.8%
N#Cc1c2c(c(-c3ccco3)[nH]c1=O)CCCC2 | 5.38%
COc1ccccc1N1C(=O)[C@@H]2C(C(=O)CN3C(=O)c4ccccc4C3=O)=NN[C@@H]2C1=O | 13%
CCC(=O)Nc1ccccc1Sc1ncnc2scc(-c3ccccc3)c12 | 4.48%
